Laboratory results as given in PubChem BioAssay AID1645887 (National Center for Advancing Translational Sciences (NCATS), 2021).
Several values for one entry are separate records, joined by “and”; a condition that tells them apart may be missing. Equal values may be shown once. Screen size: about 16,000 compounds; about 40 (0.2%) were called active. Inconclusive results (about 1%) are left out. The call rests on the fitted dose curve; in most records, active means well fitted activation curve with a large enough effect; inconclusive means small, poorly fitted or top-dose-only effect, or another doubt; inactive means no such curve, though single readings can be large or run the other way. This is one part of the list.

target: Rap guanine nucleotide exchange factor 4 (Homo sapiens) (UniProt Q8WZA2); assay: Validation qHTS for agonist of cAMP-regulated guanine nucleotide exchange factor 4 (EPAC2); settings: EPAC2 Rap1B BODIPY-GDP exchange, fluorescence; activation: stronger effect = higher value;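 further: exchange makes BODIPY-GDP fluorescence drop when released from Rap1B; series mostly up to about 150 µM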
UniProt Q8WZA2, sequence (Q8WZA2 whole entry, looked up): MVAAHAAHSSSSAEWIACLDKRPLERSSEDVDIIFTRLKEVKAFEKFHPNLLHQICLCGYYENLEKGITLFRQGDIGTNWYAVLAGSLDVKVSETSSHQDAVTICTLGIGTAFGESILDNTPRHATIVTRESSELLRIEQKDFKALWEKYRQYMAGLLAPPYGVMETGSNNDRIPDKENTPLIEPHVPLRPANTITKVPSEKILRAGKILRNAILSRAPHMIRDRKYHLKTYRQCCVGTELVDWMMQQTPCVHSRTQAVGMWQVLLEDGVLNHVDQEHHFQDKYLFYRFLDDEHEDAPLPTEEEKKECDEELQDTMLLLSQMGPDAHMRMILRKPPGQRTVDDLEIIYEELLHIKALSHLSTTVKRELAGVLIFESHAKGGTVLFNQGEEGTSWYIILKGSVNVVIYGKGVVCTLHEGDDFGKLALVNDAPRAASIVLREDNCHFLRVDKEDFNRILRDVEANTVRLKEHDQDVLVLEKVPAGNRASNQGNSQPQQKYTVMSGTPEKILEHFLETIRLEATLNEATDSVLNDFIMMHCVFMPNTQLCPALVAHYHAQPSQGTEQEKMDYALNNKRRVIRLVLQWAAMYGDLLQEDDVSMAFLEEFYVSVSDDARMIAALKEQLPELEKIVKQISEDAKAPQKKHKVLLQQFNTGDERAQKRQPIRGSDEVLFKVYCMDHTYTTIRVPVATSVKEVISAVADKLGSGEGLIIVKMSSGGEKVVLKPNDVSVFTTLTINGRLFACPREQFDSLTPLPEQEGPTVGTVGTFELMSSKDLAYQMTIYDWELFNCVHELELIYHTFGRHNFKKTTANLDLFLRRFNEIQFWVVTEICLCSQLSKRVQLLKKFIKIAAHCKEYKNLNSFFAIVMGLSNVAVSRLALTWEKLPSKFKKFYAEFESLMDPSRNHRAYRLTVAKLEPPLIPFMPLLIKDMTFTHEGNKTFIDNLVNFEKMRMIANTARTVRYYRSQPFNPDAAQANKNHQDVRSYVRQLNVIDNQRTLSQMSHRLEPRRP
Procedure, shortened: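 Fluorescent exchange assay: 100 nM EPAC2 with 250 nM RAP1B-BODIPY-GDP and 50 uM GDP; compound added, 5 min at room temperature, then read (ex 480/em 540 nm) every 5 min for 30 min. Normalized to 6.5 mM cAMP agonist control.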
On the % scale 0 is the no-effect control and ±100 the full control effect.

activation, inactive:
O=C(COc1ccc(Cl)cc1)OCCNC12CC3CC(CC(C3)C1)C2 2.49%, O=C(c1ccncc1)N1CCC2(CC1)CN(Cc1cc(C(F)(F)F)cc(C(F)(F)F)c1)C2 -20.2%, COCCn1c(=O)cnc2cnc(N3CCOCC3)nc21 -5.69%, CC[C@H](C)[C@H](NC(=O)OCC1c2ccccc2-c2ccccc21)C(=O)O -8.07%, CCN(CC)CCNC(=O)c1ccc(NS(C)(=O)=O)cc1 -23.6%, O=C(c1ccncc1)N1CCC[C@@]2(CCN(Cc3ccncc3)C2)C1 -17.5%, O=c1c(-c2cc(F)cc(F)c2)nc2cnc(N3CCNCC3)nc2n1C1CC1 -1.29%, Nc1nc(N)c(N)c(=O)[nH]1 -2.83%, c1cncc(-c2nccc(NCc3cccs3)n2)c1 -16.9%, Cc1nc2cnc(N3CCN(C)CC3)nc2n(-c2ccccc2)c1=O 1.62%, Cc1c(Br)cnc2ccccc12 -11.3%, CS(=O)(=O)N1CCC2(CC1)CN(c1cccc(-c3ccccc3)c1)C2 -15%, O=C(c1ccco1)N1CCC[C@@]2(CCN(c3ccncc3)C2)C1 -7.38%, N#CCCn1c(=O)c(CCc2ccccc2)nc2cnc(Nc3ccccc3)nc21 4.73%, O=c1c(-c2cccs2)nc2cnc(Oc3cccc(Cl)c3)nc2n1C1CC1 -16.1%, O=Cc1cc2c3c(c1)CCCN3CCC2 -17.4%, Cc1ncc2c(c1CNS(=O)(=O)N(C)C)CCN(C(=O)c1ccc(-c3ccc(F)cc3)cc1)C2 -5.4%, O=S1(=O)CCO[C@H]2Cc3ccccc3[C@H]2N1Cc1ccc(Cl)cc1 -19%, Cc1ncoc1C(=O)N1CCOc2ccc(CN3CCN(c4ccccn4)CC3)cc2C1 -16.9%, O=S(=O)(c1ccccc1)N1CCC[C@@]2(CCN(c3ccccc3)C2)C1 -3.62%, CC#CCOC(=O)c1c(C)nc2sc3c(c2c1N)CC[C@@H](O)C3 -11.9%, COc1cccc(Cn2cc(-c3cccc(C(F)(F)F)c3)nn2)c1 -9.01%, CC1(C)C(OC(=O)CCC(=O)O)CC[C@]2(C)C1CC[C@@]1(C)C2C(=O)C=C2[C@@H]3C[C@@](C)(C(=O)O)CC[C@]3(C)CCC21C (stereo not given in full) 6.05%, COc1cc(C(=O)OC(COCCC(C)C)CN2CCOCC2)cc(OC)c1OC (stereo not given) 1.78%, CCCc1nc(C(C)(C)O)c(C(=O)OCc2oc(=O)oc2C)n1Cc1ccc(-c2ccccc2-c2nn[nH]n2)cc1 -24.9%, CC/C=C\C/C=C\C/C=C\C/C=C\C/C=C\CCCC(=O)O -30.4%, Cn1cccc1C(=O)N1CCC[C@@]2(CCN(c3ccccn3)C2)C1 -18.8%, Cn1cccc1C(=O)N1CCC[C@@]2(CCN(Cc3ccccc3)C2)C1 -8.85%, CSc1nc(C(=O)N2CCOc3ccc(CN4CCN(Cc5ccccn5)CC4)cc3C2)cs1 -17.5%, CC1(C)S[C@@H]2[C@H](N=CN3CCCCCC3)C(=O)N2[C@H]1C(=O)O -17.4%, O=C(O)CNC(=O)CNC(=O)CNC(=O)CSC(=O)c1ccccc1 6.21%, COc1ccc(C(=O)N2CCC3(CCN(C(=O)Nc4cccc(C#N)c4)CC3)CC2)cc1 2.07%, Nc1ccc(C(=O)O)c(O)c1 (tested in a mixture with another compound) -8.78%, COCCn1c(=O)c(-c2cc(F)cc(F)c2)nc2cnc(OCc3ccccc3)nc21 4.9%, COCCCC/C(=N\OCCN)c1ccc(C(F)(F)F)cc1 -11.9%, CN(C)c1ncnc2ccc(-c3ccoc3)cc12 -29.9%, COC(=O)N1CCC2(CCCN(c3ccc(-c4ccccc4)cc3)C2)CC1 -18.3%, C[C@]12CCC(=O)C=C1CC[C@@H]1[C@@H]2C(=O)C[C@@]2(C)[C@H]1CC[C@]2(O)C(=O)CO -11.5% and -4.39% and -41%, NC(=O)N[C@@H](CCC(=O)O)C(=O)O -5.18%, O=C[C@H](O)[C@@H](O)[C@H](O[C@H]1O[C@H](CO)[C@@H](O[C@H]2O[C@H](CO)[C@@H](O)[C@H](O)[C@H]2O)[C@H](O)[C@H]1O)[C@H](O)CO 5.51%, N#Cc1cccc(-c2nc3cnc(Nc4ccccc4)nc3n(C[C@H]3CCCO3)c2=O)c1 -18.9%, O=C(O)CCCc1ccccc1 -10.3%, CCN(CC)CCN(C)C(=O)c1ccc(-c2ccccc2)nc1N(C)C -2.74%, O=c1c(-c2ccc(F)cc2)nc2cnc(N3CCOCC3)nc2n1C[C@H]1CCCO1 0.0522%, COc1cccc(Cn2c(=O)c(C)nc3cnc(OCc4ccccc4)nc32)c1 14.4%, O=C(N[C@@H]1c2ccccc2C2(CCN(C(=O)c3ccc4c(c3)OCCO4)CC2)[C@H]1O)c1cccnc1 -5.76%, COCCn1c(=O)c(-c2cccs2)nc2cnc(Oc3cccc(Cl)c3)nc21 -0.976%, CCOC(=O)C12CC1/C(=N\O)c1ccccc1O2 (stereo not given) -2.17%, CC1CC2C3CC(F)C4=CC(=O)C=C[C@@]4(C)[C@@]3(F)C(O)C[C@]2(C)[C@]1(O)C(=O)COC(=O)C(C)(C)C (stereo not given in full) 4.02%, CN(C)CC(C)(C)CNC(=O)c1cnn(-c2ncc3c(n2)-c2ccccc2CC3)c1-c1ccco1 -10.5%, COc1cccc(Cn2c(=O)c(-c3cccc(C#N)c3)nc3cnc(OC)nc32)c1 -5.3%, O=C(CC1(c2cccc(F)c2)CC(=O)N(Cc2cccnc2)C1=O)N1CCCCCCC1 (stereo not given) -4.64%, O=C1C[C@@H]2c3c(cccc3CN1Cc1ccc(Cl)cc1)C[C@@H](O)[C@H]2O -2.96%, CCCCCCCCCCCCCCCCCCO -20.8%, COc1ccccc1CNc1ncncc1-c1cccc(NS(C)(=O)=O)c1 0.28%, CC(C)N1C[C@@H](Sc2ccccn2)C[C@H]1C(=O)Nc1ccc2c(c1)Nc1ccccc1CC2 -16.9%, COCC(=O)N1CCC2(CC1)CCN(C(c1ccccc1)c1ccccc1)CC2 -2.11%, CC(C)C[C@@H](CO)N1CCN(CCc2ccccc2)CCC1=O -11.9%, COc1cccc(-c2nccc(NCc3cccnc3)n2)c1 -10.4%, NC1=NCCN1CC(=O)O -30.9%, C[C@@H]([C@H](O)c1ccc(O)cc1)N1CCC(Cc2ccccc2)CC1 -6.84%, Cc1c(C(=O)N2CCCCCC2)sc2ncnc(NCC3CCCO3)c12 (stereo not given) -6.31%, COCC(=O)N1CCC2(CC1)CN(c1ccncc1)C2 -11.2%, OC1(c2ccc(Cl)c(C(F)(F)F)c2)CCN(CCCC(c2ccc(F)cc2)c2ccc(F)cc2)CC1 -25.1%, C[C@@H]1C[C@H]2[C@@H]3CCC4=CC(=O)C=C[C@]4(C)[C@@]3(F)[C@@H](O)C[C@]2(C)[C@@]1(O)C(=O)CO -5.34%, c1ccc(CN2CCC3(CCc4ccccc43)CC2)cc1 -15.1% and 5.62%, CC(CC(c1ccccc1)c1ccccc1)NC(C)(C)C (stereo not given) -5.59%, CS(=O)(=O)c1ccc(Cn2c3c(c4cc(F)cc(F)c42)CCC[C@H]3CC(=O)O)cc1 -41.2%, CCCCC(C)(C)[C@H](O)/C=C/[C@H]1[C@H](O)CC(=O)[C@@H]1C/C=C\CCCC(=O)O -3.39%, Clc1nccc2c1ccc1ccccc12 -33.9%, O=C(O)COC(=O)Cc1ccccc1Nc1c(Cl)cccc1Cl 7.38%, CC1(O)CC2C(CC1O)C2(C)C (stereo not given) -25.3%, CN(C)c1ncnc2ccc(-c3ccccc3C#N)cc12 -12.6%, C=C1C[C@@]23C[C@@]1(O)CCC2[C@@]12C=CC(O)[C@](C)(C(=O)O1)C2C3C(=O)O (stereo not given in full) 0.87%, CN1CCN(c2ncc3ncc(=O)n(-c4ccccc4)c3n2)CC1 -14.2%, COc1ccc(CN2CC[C@H]3C=CC[C@@H](C(=O)NCc4cccnc4)[C@H]3C2=O)cc1OC -8.28%, COc1ccc(CNc2cc(-c3cccc(C#N)c3)ncn2)c(OC)c1 -0.0778%, Cc1ccc(-c2ccnc(-n3ncc(C(=O)N4CCCCC4c4cccnc4)c3C3CC3)n2)o1 (stereo not given) -14%, C=C1/C(=C\C=C2/CCC[C@]3(C)C([C@H](C)CCCC(C)(C)O)CC[C@@H]23)C[C@@H](O)C[C@@H]1O (stereo not given in full) -11.3%, CCC1CN(CCNC(=O)c2cccnc2OC)Cc2cc(OC)ccc2O1 (stereo not given) 4.04%, O=C(Nc1ccccc1)N1CCCC2(CCN(C(=O)c3cc(C(F)(F)F)cc(C(F)(F)F)c3)CC2)C1 -8.55%, CN(C)c1ccc(/C=C2/C(=O)Nc3ccccc32)cc1 -1.78%, COc1cc(=O)n2c(c1C(=O)NC(C)c1ccco1)CCN(C(=O)c1ccccc1SC)CC2 (stereo not given) -1.68%, Clc1ccccc1-c1cc(NCCN2CCOCC2)ncn1 -10.3%, O=C(C[N+]12CN3CN(CN(C3)C1)C2)c1ccc(I)cc1 -16%
